# About 2,200 (0.71%) of roughly 310,000 compounds showed an effect of 50% or more. Effects have a minus sign here. Some of the results follow.
# Biological target: human ether-à-go-go-related gene (hERG) potassium channel (human, UniProt Q12809)
# Test: primary screen, population patch clamp on CHO cells stably expressing hERG
# Sequence of human ether-à-go-go-related gene (hERG) potassium channel (Q12809 whole entry, looked up): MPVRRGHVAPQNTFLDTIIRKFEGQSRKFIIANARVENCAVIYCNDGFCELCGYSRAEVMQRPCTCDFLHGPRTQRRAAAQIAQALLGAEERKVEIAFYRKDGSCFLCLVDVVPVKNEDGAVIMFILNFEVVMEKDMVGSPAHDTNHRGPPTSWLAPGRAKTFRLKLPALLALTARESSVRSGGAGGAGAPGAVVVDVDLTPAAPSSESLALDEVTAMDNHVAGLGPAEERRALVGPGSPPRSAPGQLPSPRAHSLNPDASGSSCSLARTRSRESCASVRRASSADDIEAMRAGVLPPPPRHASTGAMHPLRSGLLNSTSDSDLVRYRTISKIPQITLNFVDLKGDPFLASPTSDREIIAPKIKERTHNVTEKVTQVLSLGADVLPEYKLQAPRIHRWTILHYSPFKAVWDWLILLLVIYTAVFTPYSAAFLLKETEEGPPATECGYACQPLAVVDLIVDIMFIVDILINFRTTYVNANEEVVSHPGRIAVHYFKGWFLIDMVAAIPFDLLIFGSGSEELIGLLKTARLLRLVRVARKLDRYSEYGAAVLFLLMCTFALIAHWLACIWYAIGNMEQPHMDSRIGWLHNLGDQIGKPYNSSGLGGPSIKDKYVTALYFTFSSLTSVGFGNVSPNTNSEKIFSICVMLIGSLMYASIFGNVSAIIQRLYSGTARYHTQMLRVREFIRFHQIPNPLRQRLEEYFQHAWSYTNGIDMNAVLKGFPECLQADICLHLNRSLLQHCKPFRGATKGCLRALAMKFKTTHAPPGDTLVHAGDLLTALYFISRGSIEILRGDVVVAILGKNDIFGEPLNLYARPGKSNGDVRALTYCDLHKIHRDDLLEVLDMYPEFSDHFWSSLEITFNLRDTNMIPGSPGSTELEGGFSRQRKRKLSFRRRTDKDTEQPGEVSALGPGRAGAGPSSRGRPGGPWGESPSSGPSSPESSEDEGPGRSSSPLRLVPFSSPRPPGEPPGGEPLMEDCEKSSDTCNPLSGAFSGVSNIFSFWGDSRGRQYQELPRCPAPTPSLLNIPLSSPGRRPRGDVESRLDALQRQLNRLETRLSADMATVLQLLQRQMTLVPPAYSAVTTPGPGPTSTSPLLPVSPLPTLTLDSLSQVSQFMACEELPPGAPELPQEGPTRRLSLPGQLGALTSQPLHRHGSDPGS
row,Structure (SMILES),"hERG current change (%, negative = inhibition) at 1uM [%]"
1,COc1ccc(CCN2C(=O)CC(NC34CC5CC(CC(C5)C3)C4)C2=O)cc1OC (centres unmarked),13.2
2,Nc1nonc1-n1nnc(C(=O)N/N=C/c2cccc(Cl)c2)c1CSc1ccc(Cl)cc1,13
3,C/C=C(\C)C(=O)N1CC2(CC(c3cccc(NC(=O)CCCCC)c3)=NO2)C[C@@H]1C(N)=O (some centres unmarked),1.78
4,O=C(Cc1n[nH]c(=O)c2ccccc12)NCc1ccccn1,9.31
5,C=CCSc1ncccc1C(=O)NCc1ccccc1,5.84
6,Cc1ccc(NC(=O)c2cccnc2)c([N+](=O)[O-])c1,13.6
7,O=C(Cc1ccc(Br)cc1)NC1CCN(Cc2ccccc2)CC1,-2.43
8,COC(=O)C1=C(c2cccc(OCc3ccccc3)c2)C[C@@H]2CC[C@H]1N2C(=O)NCc1ccccc1,15.2
9,CC1CC(C)CN(C/C=C/c2ccccc2[N+](=O)[O-])C1 (centres unmarked),-25.7
10,CC(C)CN(CC(C)C)CC(O)CN(c1ccccc1)S(=O)(=O)c1ccccc1[N+](=O)[O-] (centres unmarked),-29.2
11,CCn1cnc2cc(NC(=O)c3ccco3)ccc21,12.5
12,O=C(c1ccncc1)N1CCN(c2ccc3ccccc3n2)CC1,4.33
13,COc1ccc(C2c3cc(OC)c(OC)cc3CCN2C(=O)c2cccc([N+](=O)[O-])c2)cc1OC (centres unmarked),11.3
14,COc1cc(OC)cc(OC(=O)c2cccc(S(=O)(=O)N3CCN(C)CC3)c2)c1,9.94
15,O=C(NCC1CCCC(CNC(=O)N2CCc3ccccc32)C1)N1CCc2ccccc21 (centres unmarked),22.6
16,COc1nc(OC)nc(N2CCC(NC(=O)C(Cc3ccc(C(C)C)cc3)NC(C)=O)CC2)n1 (centres unmarked),13.1
17,CCCNC(=O)N1CCC(Cc2ccccc2)CC1,8.45
18,CCOC(=O)c1ccccc1OC(=O)CS(=O)c1ccccc1[N+](=O)[O-] (centres unmarked),15.2
19,Cc1c(C(=O)N2CCN(c3ccc(F)cc3)CC2)sc2nc3n(c(=O)c12)CCC3,2.54
20,COc1ccc(-c2nc(-c3ccc(C(=O)O)cc3)no2)cc1,7.29
21,C/C=C\C=C/C(=O)Nc1cccc(C2=NOC3(C2)C[C@@H](C(N)=O)N(C(=O)c2ccccc2)C3)c1 (some centres unmarked),12.8
22,O=S1(=O)CCC(NC(=S)N2CCOCC2)C1 (centres unmarked),12.3
23,CCc1cc2c(N3CCN(C)CC3)ncnc2s1.Cl,-18
